# Test system: H929 cells
# Test: cells
# Settings: Homo sapiens, NCI-H929, 24 h, read-out: H929 viability EC50
row,SMILES,EC50
1,"O=C(Nc1cc(-c2ccc3ccn(Cc4cccc(F)c4)c3n2)c(Cl)cn1)[C@@H]1CCCNC1 [Example 134, (3R)—N-{5-chloro-4-[1-(3-fluorobenzyl)-1H-pyrrolo[2,3-b]pyridin-6-yl]pyridin-2-yl}piperidine-3-carboxamide]",780 nM
2,"O=C(Nc1cc(-c2ccc3c(c2)NCC3)c(Cl)cn1)[C@@H]1CCCNC1 [Example 2, (3R)—N-[5-chloro-4-(2,3-dihydro-1H-indol-6-yl)pyridin-2-yl]piperidine-3-carboxamide]",6400 nM
3,"CC(CCN)Nc1cc(-c2ccc3ncn(Cc4cccc(F)c4)c3c2)c(Cl)cn1 (centres unmarked) [Example 48, N^3-{5-chloro-4-[1-(3-fluorobenzyl)-1H-benzimidazol-6-yl]pyridin-2-yl}butane-1,3-diamine]",1300 nM
4,"OCC(O)CN[C@H]1CC[C@H](Nc2cc(-c3ccc4ncn(Cc5cccc(F)c5)c4c3)c(Cl)cn2)CC1 (relative stereo) [Example 236, 3-{[trans-4-({5-chloro-4-[1-(3-fluorobenzyl)-1H-benzimidazol-6-yl]pyridin-2-yl}amino)cyclohexyl]amino}propane-1,2-diol]",320 nM
5,"N#Cc1cn(CC2CCOCC2)c2cc(-c3cc(NC(=O)[C@@H]4CCCNC4)ncc3Cl)cnc12 [Example 222, (3R)—N-{5-chloro-4-[3-cyano-1-(tetrahydro-2H-pyran-4-ylmethyl)-1H-pyrrolo[3,2-b]pyridin-6-yl]pyridin-2-yl}piperidine-3-carboxamide]",> 10000 nM
6,"CC(C)(CN[C@H]1CC[C@H](Nc2cc(-c3ccc4ncn(Cc5cccc(F)c5)c4c3)c(Cl)cn2)CC1)C[S+]([O-])c1ccccc1 (relative stereo) [Example 241, trans-N-{5-chloro-4-[1-(3-fluorobenzyl)-1H-benzimidazol-6-yl]pyridin-2-yl}-N′-[2,2-dimethyl-3-(phenylsulfinyl)propyl]cyclohexane-1,4-diamine]",190 nM
7,"Fc1cccc(Cn2cnc3ccc(-c4cc(NC5CCC56CCNC6)ncc4Cl)cc32)c1 (centres unmarked) [Example 121, N-{5-chloro-4-[1-(3-fluorobenzyl)-1H-benzimidazol-6-yl]pyridin-2-yl}-6-azaspiro[3.4]octan-1-amine]",2300 nM
8,"O=C(Nc1cc(-c2ccc3nnn(CCN4CCOCC4)c3c2)c(Cl)cn1)[C@@H]1CCCNC1 [Example 141, (3R)—N-(5-chloro-4-{1-[2-(morpholin-4-yl)ethyl]-1H-benzotriazol-6-yl}pyridin-2-yl)piperidine-3-carboxamide]",2100 nM
9,"COC(=O)[C@H]1CCC[C@@H](C(=O)Nc2cc(-c3ccc4ncn(CC5CCOCC5)c4c3)c(Cl)cn2)C1 (relative stereo) [Example 331, methyl (cis)-3-({5-chloro-4-[1-(tetrahydro-2H-pyran-4-ylmethyl)-1H-benzimidazol-6-yl]pyridin-2-yl}carbamoyl)cyclohexanecarboxylate]",180 nM
10,"Fc1cccc(Cn2cnc3ccc(-c4cc(NCCNc5ccncc5)ncc4Cl)cc32)c1 [Example 43, N-{5-chloro-4-[1-(3-fluorobenzyl)-1H-benzimidazol-6-yl]pyridin-2-yl}-N′-(pyridin-4-yl)ethane-1,2-diamine]",1200 nM
11,"O=C(Nc1cc(-c2ccc3ncn(CC4CCOCC4)c3c2)c(Cl)cn1)[C@H]1CCC[C@@H](C(=O)N2CC(O)C2)C1 (relative stereo) [Example 333, (cis)-N-{5-chloro-4-[1-(tetrahydro-2H-pyran-4-ylmethyl)-1H-benzimidazol-6-yl]pyridin-2-yl}-3-[(3-hydroxyazetidin-1-yl)carbonyl]cyclohexanecarboxamide]",4800 nM
12,"CS(=O)(=O)c1cc(CN2CCc3ccc(-c4cc(NC(=O)C5CCCNC5)ncc4Cl)cc32)ccc1F (centres unmarked) [Example 150, N-(5-chloro-4-{1-[4-fluoro-3-(methylsulfonyl)benzyl]-2,3-dihydro-1H-indol-6-yl}pyridin-2-yl)piperidine-3-carboxamide]",1400 nM
13,"O=C(Nc1cc(-c2ccc3nnn(Cc4ccc(F)c(F)c4)c3c2)c(Cl)cn1)[C@@H]1CCCNC1 [Example 114, (3R)—N-{5-chloro-4-[1-(3,4-difluorobenzyl)-1H-benzotriazol-6-yl]pyridin-2-yl}piperidine-3-carboxamide]",310 nM
14,"CNC(=O)N[C@H]1CC[C@H](Nc2cc(-c3ccc4ncn(Cc5cccc(F)c5)c4c3)c(Cl)cn2)CC1 [Example 27, 1-[trans-4-({5-chloro-4-[1-(3-fluorobenzyl)-1H-benzimidazol-6-yl]pyridin-2-yl}amino)cyclohexyl]-3-methylurea]",340 nM
15,"CN(C)CC(C)(C)CNc1cc(-c2ccc3ncn(Cc4cccc(F)c4)c3c2)c(Cl)cn1 [Example 67, N′-{5-chloro-4-[1-(3-fluorobenzyl)-1H-benzimidazol-6-yl]pyridin-2-yl}-N,N,2,2-tetramethylpropane-1,3-diamine]",3000 nM
16,"CC(C)(CN[C@H]1CC[C@H](Nc2cc(-c3ccc4ncn(Cc5cccc(F)c5)c4c3)c(Cl)cn2)CC1)N1CCOCC1 [Example 232, trans-N-{5-chloro-4-[1-(3-fluorobenzyl)-1H-benzimidazol-6-yl]pyridin-2-yl}-N′-[2-methyl-2-(morpholin-4-yl)propyl]cyclohexane-1,4-diamine]",190 nM

row,SMILES,EC50
1,"CS(=O)(=O)CC(=O)Nc1cc(-c2ccc3ncn(Cc4cccc(F)c4)c3c2)c(Cl)cn1 [Example 184, N-{5-chloro-4-[1-(3-fluorobenzyl)-1H-benzimidazol-6-yl]pyridin-2-yl}-2-(methylsulfonyl)acetamide]",270 nM
2,"COC(C)CN[C@H]1CC[C@H](Nc2cc(-c3ccc4ncn(Cc5cccc(F)c5)c4c3)c(Cl)cn2)CC1 (relative stereo) [Example 242, trans-N-{5-chloro-4-[1-(3-fluorobenzyl)-1H-benzimidazol-6-yl]pyridin-2-yl}-N′-(2-methoxypropyl)cyclohexane-1,4-diamine]",210 nM
3,"NC(=O)NC(=O)/C=C/C(=O)Nc1cc(-c2ccc3ncn(Cc4cccc(F)c4)c3c2)c(Cl)cn1 [Example 206, (2E)-N-carbamoyl-N′-{5-chloro-4-[1-(3-fluorobenzyl)-1H-benzimidazol-6-yl]pyridin-2-yl}but-2-enediamide]",2500 nM
4,"CS(=O)(=O)c1ccc(CN2CCc3ccc(-c4cc(NC(=O)C5CCCNC5)ncc4Cl)cc32)cn1 (centres unmarked) [Example 170, N-[5-chloro-4-(1-{[6-(methylsulfonyl)pyridin-3-yl]methyl}-2,3-dihydro-1H-indol-6-yl)pyridin-2-yl]piperidine-3-carboxamide]",2000 nM
5,"Fc1cccc(Cn2cnc3ccc(-c4cc(NCCc5ccncc5)ncc4Cl)cc32)c1 [Example 62, 5-chloro-4-[1-(3-fluorobenzyl)-1H-benzimidazol-6-yl]-N-[2-(pyridin-4-yl)ethyl]pyridin-2-amine]",3200 nM
6,"CC1(C)CCC(CN[C@H]2CC[C@H](Nc3cc(-c4ccc5ncn(Cc6cccc(F)c6)c5c4)c(Cl)cn3)CC2)O1 (relative stereo) [Example 244, trans-N-{5-chloro-4-[1-(3-fluorobenzyl)-1H-benzimidazol-6-yl]pyridin-2-yl}-N′-[(5,5-dimethyltetrahydrofuran-2-yl)methyl]cyclohexane-1,4-diamine]",290 nM
7,"Fc1cccc(Cn2cnc3ccc(-c4cc(N[C@H]5CC[C@H](NCCOc6ccccc6)CC5)ncc4Cl)cc32)c1 [Example 239, trans-N-{5-chloro-4-[1-(3-fluorobenzyl)-1H-benzimidazol-6-yl]pyridin-2-yl}-N′-(2-phenoxyethyl)cyclohexane-1,4-diamine]",230 nM
8,"CS(=O)(=O)Cc1cccc(Nc2cc(-c3ccc4ncn(Cc5cccc(F)c5)c4c3)c(Cl)cn2)c1 [Example 328, 5-chloro-4-[1-(3-fluorobenzyl)-1H-benzimidazol-6-yl]-N-{3-[(methylsulfonyl)methyl]phenyl}pyridin-2-amine]",1200 nM
9,"O=C(Nc1cc(-c2ccc3cnn(Cc4cccc(F)c4)c3c2)c(Cl)cn1)[C@@H]1CCCNC1 [Example 136, (3R)—N-{5-chloro-4-[1-(3-fluorobenzyl)-1H-indazol-6-yl]pyridin-2-yl}piperidine-3-carboxamide]",3500 nM
10,"O=C(Nc1cc(-c2ccc3c(c2)N(Cc2ccc4nccnc4c2)CC3)c(Cl)cn1)C1CCCNC1 (centres unmarked) [Example 167, N-{5-chloro-4-[1-(quinoxalin-6-ylmethyl)-2,3-dihydro-1H-indol-6-yl]pyridin-2-yl}piperidine-3-carboxamide]",3000 nM
11,"O=C1CC[C@H](C(=O)Nc2cc(-c3ccc4ncn(Cc5cccc(F)c5)c4c3)c(Cl)cn2)N1 [Example 280, N-{5-chloro-4-[1-(3-fluorobenzyl)-1H-benzimidazol-6-yl]pyridin-2-yl}-5-oxo-D-prolinamide]",290 nM
12,"CC(CO)N[C@H]1CC[C@H](Nc2cc(-c3ccc4ncn(Cc5cccc(F)c5)c4c3)c(Cl)cn2)CC1 (relative stereo) [Example 246, 2-{[trans-4-({5-chloro-4-[1-(3-fluorobenzyl)-1H-benzimidazol-6-yl]pyridin-2-yl}amino)cyclohexyl]amino}propan-1-ol]",140 nM
13,"N[C@H]1C[C@@H](C(=O)Nc2cc(-c3ccc4ncn(CC5CCOCC5)c4c3)c(Cl)cn2)C1 [Example 292, cis-3-amino-N-{5-chloro-4-[1-(tetrahydro-2H-pyran-4-ylmethyl)-1H-benzimidazol-6-yl]pyridin-2-yl}cyclobutanecarboxamide]",590 nM
14,"O=C(Nc1cc(-c2ccc3ncn(CC4CCOCC4)c3c2)c(Cl)cn1)c1cn[nH]c1 [Example 266, N-{5-chloro-4-[1-(tetrahydro-2H-pyran-4-ylmethyl)-1H-benzimidazol-6-yl]pyridin-2-yl}-1H-pyrazole-4-carboxamide]",350 nM
15,"O=C(Nc1cc(-c2ccc3ncn(CCN4CCOCC4)c3c2)c(Cl)cn1)[C@@H]1CCCNC1 [Example 14, (3R)—N-(5-chloro-4-{1-[2-(morpholin-4-yl)ethyl]-1H-benzimidazol-6-yl}pyridin-2-yl)piperidine-3-carboxamide]",750 nM
16,"O=C(Nc1cc(-c2cnc3nnn(Cc4cccc(F)c4)c3n2)c(Cl)cn1)[C@@H]1CCCNC1 [Example 247, (3R)—N-{5-chloro-4-[1-(3-fluorobenzyl)-1H-[1,2,3]triazolo[4,5-b]pyrazin-6-yl]pyridin-2-yl}piperidine-3-carboxamide]",1500 nM
